Results taken from PubChem BioAssay AID1671194 (National Center for Advancing Translational Sciences (NCATS), 2021).
About 240 (0.17%) of roughly 140,000 compounds were called active. This list was built around the results that the source calls inconclusive (neither active nor inactive); the mix of calls is not that of the screen. The call rests on the fitted dose curve; in most records, active means well fitted inhibition curve with a large enough effect; inconclusive means small, poorly fitted or top-dose-only effect; inactive means no such curve, though single readings can be large or run the other way. A potency beside an inconclusive call is a rough fit, not a confirmed value.

Assay: Primary qHTS assay for inhibitors of alpha-synuclein gene (SNCA) expression; further: nearly all actives have a fitted effect of over 45% in size;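 on activity change, negative = inhibition: plate controls were DMSO cells for no effect and cell-free wells for full effect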
Details: HEK-293 SNCA-luciferase knock-in, luminescence, 24 h; activity change, negative = inhibition: at 57.2 µM (top of the series) unless noted
Potency means the concentration at half of the fitted maximal effect; tags describe the fitted curve by direction and shape.

Row | Compound | Potency | activity change, negative = inhibition
1 | CCCN(CCC)CCCNC(=O)C1CCC(CNS(=O)(=O)c2cccc3nsnc23)CC1 (stereo not drawn) | inconclusive: 39.8 µM [inhibitor, single point] | 
2 | CCc1c(O)cc(O)c(C(=O)c2ccc(OCCN3CCOCC3)c(OC)c2)c1CC(=O)N(CCOC)CCOC | inconclusive: 0.681 µM [inhibitor, full curve, poor fit] | 
3 | Cc1nn2c(c1-c1ccccc1Oc1ccccc1)N(Cc1cccc(C(=O)O)c1)CCC2 | inconclusive: 5.01 µM [inhibitor, full curve] | 
4 | COc1ccc(C(=O)N2C[C@@H](Oc3cccnc3)C[C@H]2C(=O)NC2CC2)c(OC)c1 |  | inactive: -3.39%
5 | Oc1ccc(-c2nc3ccccn3c2Nc2ccc3c(c2)OCCO3)cc1 | inconclusive: 0.708 µM [inhibitor, full curve, poor fit] | 
6 | COc1ccc(-c2cc3nc(C)c(CCC(=O)N4CCN(c5ccccc5)CC4)c(C)n3n2)c(OC)c1 | inconclusive: 3.55 µM [inhibitor, partial curve, poor fit] | 
7 | Cn1nccc1C(O)c1cc2n(n1)CCN(Cc1nc(C3CC3)no1)C2 (stereo not drawn) |  | inactive: 1.94%
8 | O=C(Nc1ccc(Cl)cc1)N1CCC2(C1)C(=O)N(CCc1ccccc1)c1ccccc12 (stereo not drawn) | inconclusive: 11.2 µM [inhibitor, partial curve, poor fit] | 
9 | C=CCn1cc2c3c(cccc31)[C@H](CC(C)C)N[C@H](C(=O)NCc1ccccc1OC)C2 | inconclusive: 31.6 µM [inhibitor, single point] | 
10 | CCCCN(CCCNC(=O)CN1N=C(c2ccccc2)CCC1=O)c1ccccc1 | inconclusive: 39.8 µM [inhibitor, single point] | 
11 | CC1=C[C@@H](CNCCN(C)C)[C@H](C(C)C)C[C@H]1Cc1nnc(-c2ccc(C)cc2)o1 |  | inactive: -18% [at 87.6 µM]
12 | Cc1cc2oc(=O)c(CC(=O)NCCc3ccccc3)c(C)c2c2occ(C(C)(C)C)c12 | inconclusive: 10 µM [inhibitor, partial curve, poor fit] | 
13 | O=C(NCc1ccc(N2CCOCC2)cc1)c1cc2c(s1)CN(C1CC1)C2 |  | inactive: 46.3%
14 | COCCC(=O)N1Cc2c(ncn2Cc2ccccc2)C[C@H]1C(=O)OC | inconclusive: 5.01 µM [inhibitor, full curve, poor fit] | 
15 | Cc1ccc(S(=O)(=O)N2CCC(CC(=O)NCc3ccccc3)C2)c(C)c1 (stereo not drawn) | inconclusive: 5.62 µM [inhibitor, partial curve] | 
16 | CC(C)c1noc(CC2CCN(C(=O)c3cccc(N(C)C)c3)CC2)n1 | inconclusive: 39.8 µM [inhibitor, single point] | 
17 | CCN1CCC(N(Cc2ccc3c(c2)OCO3)C(=O)Nc2cc(Cl)ccc2C(=O)OC)CC1 | inconclusive: 39.8 µM [inhibitor, single point] | 
18 | Cc1cnc(C2CCN(Cc3ccccc3)C2)n1Cc1ccccc1 (stereo not drawn) | inconclusive: 39.8 µM [inhibitor, single point] | 
19 | CCc1ccc(-n2c(SC(CC)C(=O)N(CC)CC)nc3n[nH]c(C)c3c2=N)cc1 (stereo not drawn) | inconclusive: 39.8 µM [inhibitor, single point] | 
20 | CN1CCCCC12Cc1ccccc1CN([S+](=O)([O-])c1ccccc1)C2 (stereo not drawn) | inconclusive: 44.7 µM [inhibitor, partial curve, poor fit] | 

Row | Compound | Potency | activity change, negative = inhibition
21 | Cc1noc2c(-c3ccc(N4CCOCC4)cc3)cc(-c3cccnc3)nc12 | inconclusive: 56.2 µM [inhibitor, single point] | 
22 | O=C(NC1CCCCCC1)c1cc(-c2cc(Cl)cc(Cl)c2)c2nncn2n1 | inconclusive: 2.82 µM [inhibitor, full curve] | 
23 | Cc1ccc(CNC[C@H]2Cn3ccnc3CO2)cc1 |  | inactive: 8.53% [at 87.6 µM]
24 | O=C(NC1CCN(c2cc(-c3cccs3)[nH]n2)C1)c1ccccc1Cl (stereo not drawn) | inconclusive: 0.708 µM [inhibitor, single point] | 
25 | Cc1ccc(Cn2c(CNS(=O)(=O)c3c(C)cc(C)cc3C)nc3cccnc32)cc1 | inconclusive: 12.6 µM [inhibitor, partial curve, poor fit] | 
26 | Cc1c(Cl)cccc1-n1ncc(C(=O)N2CCc3ccccc3C2)c1C1CCN(C(=O)OC(C)(C)C)CC1 | active: 22.4 µM | 
27 | COc1ccc(NC(=O)Cn2c(N(C)Cc3ccccc3)nc(C)cc2=O)cc1 | inconclusive: 39.8 µM [inhibitor, partial curve, poor fit] | 
28 | Cn1ncc2c(C(=O)NCCc3ccc(Cl)cc3)cc(-c3ccc(Cl)cc3Cl)nc21 | inconclusive: 8.91 µM [inhibitor, single point] | 
29 | Cc1nn(-c2ccc(F)cc2)c(C)c1[C@@H]1C=C[C@@H](NCc2ccc(C(C)C)cc2)C1 | inconclusive: 56.2 µM [inhibitor, single point] | 
30 | CCc1c(C)sc2c1CCN(C(=O)Nc1ccccc1C(F)(F)F)C2c1ccccc1 (stereo not drawn) | inconclusive: 39.8 µM [inhibitor, single point] | 
31 | O=c1cc(-c2ccccn2)oc2c(-c3cccc(CO)c3)nccc12 | inconclusive: 8.91 µM [inhibitor, partial curve, poor fit] | 
32 | O=C(NCc1cccc(Cl)c1)c1nc2cccnc2n(CCc2ccccc2)c1=O | inconclusive: 3.55 µM [inhibitor, single point] | 
33 | Cc1noc2c(NCCN(C)C)cc(-c3ccc(Cl)cc3)nc12 | inconclusive: 56.2 µM [inhibitor, single point] | 
34 | COc1cc(Cl)c(NS(=O)(=O)c2ccc3c(c2)CC(C)N3C(=O)C2CCC2)c(OC)c1 (stereo not drawn) | inconclusive: 39.8 µM [inhibitor, single point] | 
35 | Cc1ccc(C(Nc2ccccn2)c2ccc3cccnc3c2O)cc1 (stereo not drawn) | inconclusive: 20 µM [inhibitor, partial curve, poor fit] | 
36 | Cc1ccccc1-c1nc(N2CCOCC2)cc2c1CN(Cc1ccccc1)C2=O | inconclusive: 31.6 µM [inhibitor, single point] | 
37 | COc1ccc(CNC(=O)N2CCC(Oc3ccc(-c4noc(C5CC5)n4)cc3)C2)cc1 (stereo not drawn) |  | inactive: 9.24%
38 | Cc1cc(C(=O)N2CCCC(C(=O)Nc3cccc(-c4cc5ccccc5[nH]4)c3)C2)nn1C (stereo not drawn) | inconclusive: 8.91 µM [inhibitor, partial curve, poor fit] | 
39 | O=C(C1CCCN(C2CCN(c3ncnc4sccc34)CC2)C1)N1CCCC1 (stereo not drawn) | inconclusive: 3.98 µM [inhibitor, partial curve, poor fit] | 
40 | CC(=O)c1ccc(N2C(=O)N(Cc3cccc(C(F)(F)F)c3)c3ccccc3S2(=O)=O)cc1 | inconclusive: 39.8 µM [inhibitor, single point] | 

Row | Compound | Potency | activity change, negative = inhibition
41 | COCCNC(=O)C1CCN(C(=O)c2nnn3c2COC(c2ccc(C)cc2)C3)CC1 (stereo not drawn) |  | inactive: 144%
42 | CC(=O)Nc1ccc(NC(=O)CCCc2nc(-c3ccc(C(C)(C)C)cc3)no2)cc1 | inconclusive: 0.112 µM [inhibitor, full curve, poor fit] | 
43 | COc1ccc(C(=O)N2CCC3(CC2)NC(=O)N(c2cccc(F)c2)N3)cc1OC | inconclusive: 2.24 µM [inhibitor, full curve] | 
44 | COc1ccc(N(Cc2cccs2)C(=O)c2ccccc2C)cc1 | inconclusive: 3.55 µM [inhibitor, full curve, poor fit] | 
45 | CCOc1cc(C(=O)Nc2ccc3oc(-c4ccc(F)cc4Cl)nc3c2)cc(OCC)c1OCC | inconclusive: 39.8 µM [inhibitor, single point] | 
46 | CCOC(=O)c1c(-c2ccccc2)oc2ccc(NS(=O)(=O)c3ccc(OC)cc3)cc12 | inconclusive: 11.2 µM [inhibitor, partial curve, poor fit] | 
47 | CCC(C)C(=O)N1CCc2[nH]nc(C(=O)NCCCc3ccccc3)c2C1 (stereo not drawn) |  | inactive: -23.8%
48 | CC(C)CCN1CCC2(C1)C(=NC1CCCC1)NC(=O)N2c1cc(F)cc(F)c1 (stereo not drawn) | inconclusive: 1.41 µM [inhibitor, full curve, poor fit] | 
49 | CCCS(=O)(=O)c1ncc(Cl)c(C(=O)N2CCN(c3ccc(OC)cc3)CC2)n1 | inconclusive: 15.8 µM [inhibitor, partial curve, poor fit] | 
50 | COc1cccc(NC(=O)N[C@H]2CCN(C(=O)C=C(C)C)[C@@H]2C(=O)N[C@@H](Cc2cccs2)C(N)=O)c1 | inconclusive: 20 µM [inhibitor, single point] | 
51 | COCc1cn(C[C@H]2C[C@@H](NCc3cccnc3)[C@H](O)[C@@H]2O)nn1 | inconclusive: 56.2 µM [inhibitor, single point] | 
52 | CN(C)Cc1cccc(N=C(c2ccccc2)c2c(O)[nH]c3cc(C(=O)N(C)C)ccc23)c1 | inconclusive: 19.2 µM [inhibitor, partial curve, poor fit] | 
53 | Cc1cc(F)ccc1OC1(C(=O)O)CCN(c2ncnc3nc[nH]c23)CC1 |  | inactive: 6.31%
54 | Cc1ccc(-c2noc([C@@H]3Cc4nc[nH]c4CN3C(=O)CCC(=O)O)n2)cc1 | inconclusive: 7.94 µM [inhibitor, full curve] | 
55 | CCN1c2cc(C(=O)Nc3ccc4c(c3)OCCO4)ccc2C(=O)N2CCCCCC21 (stereo not drawn) | inconclusive: 31.6 µM [inhibitor, single point] | 
56 | COc1ccccc1CNC(=O)c1ccc(Cn2ccn3nc4c(c3c2=O)CCCC4)cc1 | inconclusive: 11.2 µM [inhibitor, partial curve, poor fit] | 
57 | Cc1cc(OC(C)C(=O)N(Cc2ccco2)Cc2ccccc2F)cc(C)c1Cl (stereo not drawn) | inconclusive: 22.4 µM [inhibitor, single point] | 
58 | CCOc1cccc2sc(N(Cc3cccnc3)C(=O)C3CCCCC3)nc12 | inconclusive: 39.8 µM [inhibitor, single point] | 
